The campaign covered roughly 280,000 compounds. About 100 (0.036%) were called active. Inconclusive results, whose numbers are uncertain, are shown with a selection of clear calls. The call rests on the fitted dose curve; in most records, active means well fitted inhibition curve with a large enough effect in the signal ratio, with a control signal flat (not every such curve was filed as active); inconclusive means small, poorly fitted or top-dose-only effect, or effect the other way, or a change in a side signal; inactive means no such curve, though single readings can be large or run the other way; the % refers to the signal ratio. Potencies beside an inconclusive call are fits to weak or partial responses and may not hold up. “Side channel” marks fits to a control or component signal instead of the main read-out.
Biological target: Muscleblind-like protein 1 (Homo sapiens) (UniProt Q9NR56)
UniProt Q9NR56, sequence (Q9NR56 whole entry, looked up): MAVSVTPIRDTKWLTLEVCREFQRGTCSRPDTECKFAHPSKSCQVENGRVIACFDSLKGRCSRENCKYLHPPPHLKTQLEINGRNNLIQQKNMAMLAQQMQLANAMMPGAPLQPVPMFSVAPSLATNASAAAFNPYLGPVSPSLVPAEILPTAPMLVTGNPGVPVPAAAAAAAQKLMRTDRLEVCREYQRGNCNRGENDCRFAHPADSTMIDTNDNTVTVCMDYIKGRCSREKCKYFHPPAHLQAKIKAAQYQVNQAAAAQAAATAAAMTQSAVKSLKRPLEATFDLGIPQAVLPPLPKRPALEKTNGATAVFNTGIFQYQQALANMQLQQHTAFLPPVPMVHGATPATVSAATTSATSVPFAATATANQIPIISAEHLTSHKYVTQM
Test: qHTS Assay for Inhibitors of MBNL1-poly(CUG) RNA binding
Details: TR-FRET MBNL1-His/biotin-(CUG)12 binding, 665/545 ratio; activity change, negative = inhibition: at 57.5 µM (top of the series)
Outline: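 TR-FRET readout: Ex 340 nm, 665/545 nm emission ratio, normalized to buffer-only (basal) and MBNL1-(CUG)12 controls. Complex of MBNL1-His with Biotin-(CUG)12, compounds 92 nM–58 uM, incubated 60 min at room temperature.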
On the % scale 0 is the no-effect control and ±100 the full control effect; potency means the concentration at half of the fitted maximal effect; tags describe the fitted curve by direction and shape or compound fluorescence and quenching.

SMILES | Potency | activity change, negative = inhibition
O=C(Nc1ccccc1OC(F)(F)F)c1ccc([N+](=O)[O-])cc1 | inconclusive: 15.8 µM [quencher, side channel, partial curve] | –
COC(=O)c1sccc1-n1cccc1C(=O)C(=O)N1CCCC1 | inconclusive: 126 µM [inhibitor, single point] | –
CC(C)C(NS(=O)(=O)c1cccc2nsnc12)C(=O)NCc1ccco1 (stereo unspecified) | inconclusive: 15.8 µM [quencher, partial curve] | –
CN(Cc1ccccc1)C(=O)c1ccc([N+](=O)[O-])o1 | inconclusive: 11.2 µM [quencher, side channel, partial curve] | –
COc1ccc2nc(NC(=O)C3CCN(S(=O)(=O)c4cccc5nsnc45)CC3)sc2c1 | inconclusive: 17.8 µM [quencher, side channel, partial curve] | –
COc1ccc(C(=O)NC(=S)Nc2cccnc2)cc1Cl | – | inactive: -4.01%
CCCCCSc1nnc(-c2ccccc2NC(C)=O)c(=O)[nH]1 | inconclusive: 0.158 µM [quencher, side channel, full curve, poor fit] | –
NS(=O)(=O)c1ccc(N=Nc2c(-c3ccccc3)[nH]n(-c3nc(-c4ccccc4)cs3)c2=O)cc1 | – | inactive: 4.56%
CCN(CC)c1ccc(C=C2C(=O)OC(C)(C(C)(C)C)OC2=O)cc1 (stereo unspecified) | inconclusive: 28.2 µM [quencher, side channel, single point] | –
C#CCCCCCCC#CCN(C)C | – | inactive: -26.8%
O=C(Nc1ccccc1Oc1cccnc1)C1CCCN(Cc2ccccc2O)C1 (stereo unspecified) | – | inactive: 5.44%
O=C(NCC1CCCO1)C1CCN(S(=O)(=O)c2cccc3nonc23)CC1 (stereo unspecified) | inconclusive: 15.8 µM [quencher, side channel, partial curve] | –
CC(C)C1N=C2c3ccccc3N=C(SCc3cc(=O)n4cc(Cl)ccc4n3)N2C1=O (stereo unspecified) | inconclusive: 11.2 µM [quencher, side channel, partial curve] | –
COC(=O)/C=C1\N/C(=N\c2nc(C)cc(C)n2)N(c2ccccc2)C1=O | – | inactive: 10.1%
O=C(NNC(=O)c1nn(-c2ccc(F)cc2)ccc1=O)c1ccccc1Cl | inconclusive: 25.1 µM [quencher, side channel, partial curve] | –
CCCN1CCC(NC(=O)C2CCN(C(C)=O)CC2)CC1 | – | inactive: 8.26%
CCOC(=O)c1sc(=NC(=O)c2cccc(Br)c2)n(C)c1C | inconclusive: 1.41 µM [fluorescent, side channel, full curve] | –
Cc1ccc[n+](CC(=O)Nc2ccc([N+](=O)[O-])cc2Cl)c1 | inconclusive: 14.1 µM [quencher, side channel, partial curve] | –
O=C(NCC1CCN(C(=O)c2ccc([N+](=O)[O-])cc2)CC1)c1ccc([N+](=O)[O-])cc1 | inconclusive: 12.6 µM [quencher, side channel, partial curve] | –
COC(=O)C1=CN(C)C=C(C(=O)OC)C1c1ccccc1Cl | inconclusive: 31.6 µM [quencher, side channel, single point] | –
COC(=O)Cn1c(=NC(=O)C(C)(C)C)sc2c(C)cc(C)cc21 | inconclusive: 39.8 µM [quencher, side channel, single point] | –

SMILES | Potency | activity change, negative = inhibition
CC(Sc1nc(-c2ccccc2)cs1)C(=O)Nc1ccc(Cl)cn1 (stereo unspecified) | inconclusive: 0.1 µM [fluorescent, side channel, partial curve, poor fit] | –
CC(CN(C)Cc1ccccc1)OC(=O)c1cccs1 (stereo unspecified) | – | inactive: -2.71%
OC(CNCC1CCCO1)Cn1c2ccc(Cl)cc2c2cc(Cl)ccc21 (stereo unspecified) | – | inactive: -7.94%
COc1ccc(N=NC2=C(O)CC(C)(C)CC2=O)c(OC)c1 | inconclusive: 7.94 µM [quencher, side channel, partial curve] | –
Cn1ncc(Br)c1C(=O)N/N=C/c1ccc(OS(=O)(=O)c2ccccc2)cc1 | inconclusive: 0.708 µM [quencher, side channel, single point] | –
COC(=O)C1=C(O)/C(=C\c2sccc2C)N=C1C | inconclusive: 22.4 µM [quencher, side channel, partial curve] | –
COc1ccc(N2CCN(C3CCCN(Cc4cccc(C)c4)C3)CC2)cc1 (stereo unspecified) | – | inactive: -2.78%
O=C(Nc1nc(-c2ccccc2)cs1)c1ccc(N2CCOCC2)c([N+](=O)[O-])c1 | – | inactive: 19.8%
c1ccc(CN2CCN(c3nc(NCc4ccco4)c4ccccc4n3)CC2)cc1 | inconclusive: 31.6 µM [quencher, side channel, single point] | –
Cc1ccc(Oc2ncnc(N)c2[N+](=O)[O-])cc1C | inconclusive: 12.6 µM [quencher, side channel, partial curve] | –
COc1cccc(OCc2nc(-c3cccc([N+](=O)[O-])c3)no2)c1 | inconclusive: 11.2 µM [quencher, side channel, partial curve] | –
CN(C)C(=O)c1ccc(Nc2nc(-c3cccs3)nc3ccccc23)cc1 | inconclusive: 10 µM [quencher, side channel, partial curve] | –
CCOC(=O)c1cc(-c2ccccc2)sc1NC(=O)CCN1C(=O)c2ccccc2C1=O | inconclusive: 1.41 µM [fluorescent, side channel, partial curve] | –
O=[N+]([O-])C1=CC=C2C(=NC3(CCCCC3)N2O)C1=NCCO | inconclusive: 11.2 µM [quencher, side channel, partial curve] | –
COc1cc(C)c(C(C)C)cc1S(=O)(=O)n1ccnc1 | inconclusive: 7.94 µM [fluorescent, side channel, partial curve, poor fit] | –
Cc1ccccc1C(=O)NC(CC(C)C)C(=O)NN1C(=O)c2ccccc2C1=O (stereo unspecified) | inconclusive: 39.8 µM [quencher, side channel, single point] | –
O=C(COc1ccc(Br)cc1)N1CCNC1=O | – | inactive: -7.52%
CCOc1ccc(NC(=S)NC(=O)c2cnn(CC)c2)c([N+](=O)[O-])c1 | inconclusive: 12.6 µM [quencher, side channel, partial curve] | –
COc1cc(O)oc1C=Nc1ccc(C(F)(F)F)cc1 | inconclusive: 20 µM [quencher, side channel, partial curve] | –
CC(=O)c1ccc(NC(=O)CSc2nnc(-c3ccco3)c(-c3ccco3)n2)cc1 | inconclusive: 12.6 µM [quencher, side channel, partial curve] | –
CC(=O)c1ccccc1NS(=O)(=O)c1cccc2nsnc12 | – | inactive: 26%

SMILES | Potency | activity change, negative = inhibition
CCN(CC)c1ccc(C=O)c(OC)c1 | inconclusive: 12.6 µM [quencher, side channel, partial curve, poor fit] | –
O=C(c1ccc2snnc2c1)N1CCSCC1 | – | inactive: 4.46%
Cc1cccc(N=C2NC(=O)c3cc([N+](=O)[O-])ccc32)c1 | inconclusive: 7.94 µM [quencher, side channel, partial curve] | –
CC(Nc1ccnc2cc(Cl)ccc12)c1ccc(S(N)(=O)=O)cc1 (stereo unspecified) | inconclusive: 0.794 µM [fluorescent, side channel, single point] | –
CC12CN3CC(C)(CN(C1)C3c1ccc([N+](=O)[O-])o1)C2 (stereo unspecified) | inconclusive: 31.6 µM [quencher, side channel, single point] | –
O=C1CSC(=S)N1/N=C/c1cccnc1 | inconclusive: 17.8 µM [quencher, partial curve] | –
O=C(Nc1cccc([N+](=O)[O-])c1)c1ccc2nsnc2c1 | inconclusive: 12.6 µM [quencher, side channel, partial curve] | –
COCCCNC(=O)CN1C(=O)c2cccc3cccc1c23 | inconclusive: 28.2 µM [quencher, side channel, single point] | –
COc1ccccc1N1CCN(C2=NS(=O)(=O)c3ccccc32)CC1 | – | inactive: 5.05%
COc1ccc(-n2c(CN3CCN(c4ccccc4)CC3)nc3ccc([N+](=O)[O-])cc3c2=O)c(OC)c1 | inconclusive: 10 µM [quencher, side channel, partial curve] | –
Oc1[nH]c2ccc(Br)cc2c1N=Nc1nn[nH]n1 | inconclusive: 17.8 µM [quencher, side channel, partial curve] | –
Cc1c(C#N)c(O)n(CCO)c(=O)c1N=Nc1ccc(S(N)(=O)=O)cc1 | inconclusive: 11.2 µM [quencher, side channel, partial curve] | –
CCOc1cccc(NC(=O)Cn2nc(-c3ccc4c(c3)OCCO4)ccc2=O)c1 | inconclusive: 39.8 µM [fluorescent, side channel, single point] | –
Cc1ccc(S(=O)(=O)Nc2cc(-c3nn(C)c(=O)c4ccccc34)ccc2N2CCOCC2)cc1 | – | inactive: -0.865%
CCOC1(OCC)N=C(N)C2(C#N)C(c3ccc(NC(C)=O)cc3)C12C#N (stereo unspecified) | inconclusive: 20 µM [quencher, side channel, partial curve] | –
O=C(c1ccccc1)c1cc2ccc(O)cc2oc1=O | inconclusive: 15.8 µM [quencher, side channel, partial curve] | –
Cc1ccc(-n2nnnc2Sc2nc([N+](=O)[O-])nn2C)cc1C | inconclusive: 15.8 µM [quencher, side channel, partial curve] | –
Cn1nc([N+](=O)[O-])nc1Sc1cccc2cccnc12 | inconclusive: 15.8 µM [quencher, side channel, partial curve] | –
Cc1cc(C)nc(NS(=O)(=O)c2ccc(N/C=C3\CCCC3=O)cc2)n1 | inconclusive: 15.8 µM [quencher, partial curve] | –
